Measured values from PubChem BioAssay AID493208 (National Center for Advancing Translational Sciences (NCATS), 2011).
The whole screen tested about 44,000 compounds, of which about 340 (0.77%) were called active. Inconclusive results (about 5%) are left out. Calls come from the whole dose curve; as a rule, active = well fitted inhibition curve with a large enough effect; inconclusive = small, poorly fitted or top-dose-only effect; inactive = flat fitted curve, though single readings scatter. Some of the results follow.

assay: Acumen qHTS Assay for Inhibitors of the mTORC1 Signaling Pathway in MEF (Tsc2-/-, p53-/-) Cells: Sytravon; details: phospho-rpS6 immunofluorescence/PI, 24 h; series mostly up to 38.3 µM; activity change, negative = inhibition: at the top concentration;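 note: plate controls were DMSO for no effect and rapamycin for full effect; nearly all actives have a fitted effect of over 50% in size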
From the text: NIH Molecular Libraries Probe Production Centers Network [MLPCN] NIH Chemical Genomics Center [NCGC] MLPCN Grant: NS059428-01 Assay Submitter (PI): Blenis, John; Hoffman, Greg; Harvard University NCGC Assay Overview: The mammalian target of rapamycin (mTOR) is an intracellular serine/threonine kinase Aberrant regulation of mTOR signaling plays a causative role in a number of human diseases, including cancer, benign tumors such as lymphangioleiomyomatosis (LAM) and Tuberous Sclerosis Complex (TSC), and metabolic diseases such as diabetes and obesity. This project aims to identify inhibitors of ribosomal protein S6 (rpS6) phosphorylation. The phosphorylation of rpS6 is a key event downstream of mTOR activation. The assay uses a phospho-specific antibody of phospho-rpS6 to detect inhibitors of mTOR activation. Mutations in the Tsc1 and Tsc2 genes are the underlying genetic lesions responsible for TSC, causing constitutive activation of the mTORC1 pathway and leading to profound effects on cell metabolism. Aberrant metabolism in cancer has recently received significant attention as a target to develop therapeutic agents in the treatment of cancer.1 As Tsc2-/- cells have lost the ability to respond to energy and growth factor deprivation, these cells are unable to properly down regulate cellular biosynthetic processes in response to metabolic stress, and are thus extremely sensitive to glucose deprivation-induced death.2 A central goal of this project is to explore the unique cell survival and metabolic properties of cells with Tsc1 or Tsc2 by screening for compounds that selectively target the Tsc2-/- MEFs by screening both Tsc2-/- and WT MEF cell lines. We hope to better understand these aspects of TSC physiology in order to exploit them for therapeutic benefit.
NCGC Acumen Assay Protocol Summary: For quantitative high throughput analysis of mTORC1 signaling, we developed a cell-based assay for immuno-fluorescence based detection of rpS6 phosphorylation on the Acumen Explorer that will be used a platform for the primary small molecule screen. Mouse embryonic fibroblasts (MEFs) are cultured in 1536-well plates using DMEM + 10% FBS. Twenty-four hrs after plating, test compounds (solubilized in DMSO) are delivered and incubated with the cells for 24 hrs at 37 degree Celsius. Following the incubation, media with compound is aspirated and the cells are fixed in 4% paraformaldehyde (PFA) containing PBS + 0.2% TX-100. Next, PFA is aspirated, cells are washed two times with PBS plus 0.2% TX-100 and the cells are blocked for 1 hr at room temperature (blocking buffer: LiCOR Blocking Buffer plus 0.2% TX-100). […] Cells are washed two times with PBS plus 0.2% TX-100, and stained with 10 uM propidium iodide (PI) for 20-25 minutes for cell number measurement (1:500 dilution of Hoescht staining is also added for IN Cell imaging). The plates are scanned on the Acumen Explorer laser scanning instrument (TTP Labtech) using the 488nm laser for simultaneous excitation of the Alexa-488 and PI. […] The normalized phospho-S6 staining is calculated as the ratio of the integrated Alexa 488 intensity divided by the integrated PI intensity for the single concentration rapamycin control (7.5 nM) and DMSO columns. […] Inhibition of the pathway is defined based on the normalized phospho-S6 intensity in rapamycin treated cells. Active cells are defined as those with a normalized phospho-S6 staining above this threshold, and each treatment is reported as the % positive cells in the well, where thresholds are defined by selecting wells with the highest and lowest signal and differentiating between the % non-active and % active populations. In addition to the pathway specific phospho-S6 endpoint, the number of PI stained cells from the Acumen is recorded as a measure of cell viability. The primary screen was performed with a MEF cell line in a defined genetic background, Tsc2-/-, p53-/- cell line stably transfected with an empty vector control (Tsc2-/- MEF).

Activity change, negative = inhibition, inactive:
CCCn1c(=O)c2sccc2n2c(CCCC(=O)Nc3ccccc3F)nnc12 2.61%
CN(C(=O)c1oc(=O)c2ccccc2c1-c1ccccc1)c1cccc(Cl)c1 -12.8%
COc1ccc(-n2c(SCC(=O)NCc3ccccc3)nc3n[nH]c(C)c3c2=N)cc1 -7.43%
COc1cccc(N2CCN(C(=O)Cn3ncc4c(=O)oc5ccccc5c43)CC2)c1 -13.3%
O=C1CC(c2cccc(F)c2)c2c(n3ncnc3[nH]c2=O)N1 (stereo not drawn) -2.3%
COc1ccc(-n2nc(C(=O)N3CCN(c4cccc(C(F)(F)F)c4)CC3)c3c4ccccc4n(C)c3c2=O)cc1Cl 0.381%
CCOc1ccc(CCNC(=O)Cc2ccc(NC(=O)N3CCSc4ncccc43)cc2)cc1 0%
Cc1cccc(-c2noc(-c3cc(-c4ccc(F)cc4)n[nH]3)n2)c1 -1.49%
COc1cccc(N2CCN(C(=O)Cn3ncc4c5ccccc5n(C)c4c3=O)CC2)c1 -2.78%
Cc1oc2ncn(C)c(=O)c2c1C(=O)NCc1ccccc1 2.31%
COc1cc(OC)cc(C(=O)Nc2nc(-c3nnn(-c4ccc(F)c(Cl)c4)c3C)ns2)c1 -12.7%
O=C(CSc1nc(-c2ccco2)nc2cc(=O)[nH]n12)Nc1ccccc1F 6.19%
COc1ccc2cc3cc(C(=O)Nc4ccccc4C)oc3nc2c1 1.64%
COc1ccc(NC(=O)CSc2nc(C)cc(C)c2C(=O)Nc2cccc(C)c2)cc1 2.53%
COc1cccc(C(=O)Nc2ccccc2-c2nnc(-c3ccc(C(C)(C)C)cc3)o2)c1 0.357%
Cc1ccc(NC(=O)Nc2ccc3nc(N4CCN(C)CC4)cc(C)c3c2)cc1C 2.68%
C[C@@H](NC(=O)CN(c1ccccc1)S(=O)(=O)N(C)C)c1ccccc1 -5.14%
CCCOC(=O)c1ccc(Nc2nc3ccccc3nc2-n2nc(C)cc2C)cc1 0.86%
CCN1CCN(C(=O)c2ccc3c(c2)N(Cc2ccccc2F)C(=O)c2ccccc2S3(=O)=O)CC1 0.0935%
Cc1ccccc1NC(=O)c1ccc(F)c(S(=O)(=O)NC2CCCC2)c1 6.52%
Cc1ccc(N2CCN(C(=O)c3c(C)oc4nc(C)nc(N5CCCC5)c34)CC2)c(C)c1 3.42%
COc1cc(NS(=O)(=O)c2ccc(NC(=O)c3ccc(C(C)=O)cc3)cc2)nc(OC)n1 -2.2%
CCOC(=O)c1cccc(NC(=O)N2CC(CC)Oc3ccccc32)c1 (stereo not drawn) 10.5%
Cc1cccc(-n2ncc(C(=O)NCc3ccco3)c2C2CCN(C(=O)OC(C)(C)C)CC2)c1 6.54%
Cc1nc2cccnc2n1C1CCN(S(=O)(=O)c2ccc(C(C)C)cc2)CC1 -23.3%
O=C(CSc1ncc2c(n1)-c1ccccc1N(Cc1ccc(F)cc1)S2(=O)=O)NCc1ccccc1 12%
Cc1cccc(CNC(=O)CCCN2C(=O)COc3ccc(C)cc32)c1 -5.39%
CCn1c(=O)c2cc(C(=O)N(C)c3cc(Cl)c(OC)cc3OC)sc2c2ccccc21 -10.5%
O=C(Nc1ccc(Br)cc1)c1ccc(Br)c(S(=O)(=O)N2CCCCC2)c1 -5.16%
Cc1cn2c(=O)cc(COC(=O)c3cccc(NC(=O)COc4ccc(Cl)cc4)c3)nc2s1 0%
COC(=O)c1c(NC(=O)COc2ccccc2Cl)sc2c1CCC(C(C)(C)C)C2 (stereo not drawn) 5.44%
Cc1ccc(CCNC(=O)c2cc3sccc3n2Cc2ccc(F)cc2)cc1 -1.97%
Cc1ccc(C(=O)c2cn(Cc3ccccc3F)c3cc4c(cc3c2=O)OCO4)cc1 0.611%
COC(=O)c1ccc(Cl)cc1NC(=O)N1CCC(CN2CCCC2)CC1 -1.66%
N#C/C(=C\c1ccc(Br)cc1)c1nc(-c2cc3cc(Br)ccc3oc2=O)cs1 -0.387%
COc1cc(/C=C(\C#N)c2nc3ccc(C)cc3[nH]2)ccc1OC(C)C -4.15%
CCc1ccc(S(=O)(=O)c2c[nH]c3cc(OC)c(OC)cc3c2=O)cc1 -15.8%
COc1ccc2cc3cc(C(=O)NCCc4ccccc4)sc3nc2c1Cl -1.24%
CCc1ccccc1N(C)S(=O)(=O)c1ccc2[nH]cc(C(=O)NCCOC)c(=O)c2c1 0.26%
COc1cccc(NC(=O)C(=O)NCC(c2ccc3c(c2)OCO3)N2CCOCC2)c1 (stereo not drawn) -0.31%
O=C(Cn1c(=O)n(-c2ccc(Cl)cc2)c(=O)c2sc3ccccc3c21)NC1CCCCC1 -4.09%
COc1cc(OC)c(NC(=O)CCn2cccn2)cc1Cl -9.09%
CN(Cc1ccccc1)C(C(=O)NC1CCCCC1)c1ccc(Cl)cc1 (stereo not drawn) 3.9%
Fc1ccc(C(Nc2ccc(Cl)c(C(F)(F)F)c2)c2nnc(-c3ccccc3)o2)cc1 (stereo not drawn) 3.61%
CCN(CCCNC(=O)CSc1cc(=O)n(C)c2cc(Cl)ccc12)c1cccc(C)c1 1.81%
Cc1c2cnn(-c3ccccc3)c(=O)c2c(C)n1CC(=O)N1CCN(c2ccc(F)cc2)CC1 -5.25%
COc1cc(-c2noc(-c3ccc(N4CCOCC4)c([N+](=O)[O-])c3)n2)cc(OC)c1OC -0.562%
Cc1ccc(NC(=O)CSc2nc3ccccc3c3nc(CCn4cncc4C)nn23)c(C)c1 2.07%
